Test results published in the supplement of paper PMC11417369.
± gives the standard deviation of the averaged measurements. The list shows a part of the results.

These sequences were tested on PfAP2-LT AP2 domain (GST-tagged) (assay: gcPBM binding intensity (ln(normalized median fluorescence intensity)); higher = stronger DNA binding).
Method in brief: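 Probes on an Agilent 4 × 180k array were primer-extended, double-stranded and 36 bp long, taken from intergenic genomic regions, with negative controls added. GST-tagged P. falciparum DNA-binding domains from E. coli, about 25 μg on average, were applied to the array for 1 h in 1× PBS containing 1% milk, 0.2 mg/ml BSA, 0.5% salmon testes DNA and 0.03% Triton X-100. Binding intensity, obtained after Alexa488 anti-GST antibody detection and a 488 nm scan, is the highest Masliner-normalised natural-log median intensity across replicate spots of either probe orientation.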

Row | Sequence | gcPBM binding intensity (ln)
1 | ATATATATATTAAAGGTGCACAAATAAATATATACA [GTGCAC_site9532] | 9.12 ± 0.45
2 | ATATTTTTTTTCTTCACACACATGAATTATATATAA [CACACA_site3216] | 9.07 ± 0.38
3 | AATATACACATTGTGAAATAACAAAAAAGGCAAAAA [CACACA_negctrl_site1014] | 9.06 ± 0.53
4 | CCTATTTATATATACACACACATATATAAATAAATA [CACACA_site2991] | 9.19 ± 0.23
5 | ATGGAAAAATGTATATATAAAATAAATATATTATAT [CACACA_negctrl_site1712] | 8.69 ± 0.49
6 | CATATTAAAAATACATGTACATATATATTTAATATA [XGTACX_site8580] | 8.62 ± 0.49
7 | GTTTGTAAATATTTTACACACATATTTATTTATATA [CACACA_site6632] | 8.82 ± 0.42
8 | TATAAATATGTGTTTACACACAATAATGAATTAAAA [CACACA_site6555] | 8.88 ± 0.45
9 | GTTAAAATAATATTATGTACATATATATAAAAATAT [XGTACX_site8512] | 8.72 ± 0.41
10 | AACCTCAAATACACAAGTACGTATAATAAGGAACAA [XGTACX_site4304] | 9.12 ± 0.52
11 | TATCTCATTTGGAATTGTACTAACAGATACTTGTTT [XGTACX_site2672] | 8.77 ± 0.5
12 | ATTCAATAATTGTTTTTTTTCTTTTTGTTTTTGTTT [GTGCAC_negctrl_site563] | 8.64 ± 0.56
13 | TATACGCATATTTTTACACACATATTTTTTCATATA [CACACA_site2546] | 9.11 ± 0.42
14 | TATATATAATATATATGTACATATGTATAATATTTA [XGTACX_site4400] | 8.71 ± 0.45
15 | TTATGAAAAAAATACTGTACACAATATGACGAAAGT [XGTACX_site2283] | 8.98 ± 0.38
16 | TTTTAAATAAATCATGCATGCACATATAATTATATT [TGCATGCA_site151] | 9.01 ± 0.35
17 | CATATTAGGACAAAGTGTACATATATATATATATAT [XGTACX_site1172] | 9.72 ± 0.2
18 | AATATTACGTCTGGACGTACAAATCTTTTTCGTGTC [XGTACX_site6644] | 8.85 ± 0.47
19 | AAATTATTGAAATACGCATGTGTTTTTTTTTTTTTT [TGCATGCA_site391] | 8.71 ± 0.38
20 | TTTTACTAGATATATACACACATTATACCTATAGAT [CACACA_site7530] | 9.04 ± 0.43
21 | ATATAAAGGTTTATTAGTACACATTAGAATACTTTT [XGTACX_site4492] | 8.62 ± 0.52
22 | ACATTTTTTTTTTTTTTTTTTTTCTTACATCATGCA [CACACA_negctrl_site1413] | 8.69 ± 0.57

Row | Sequence | gcPBM binding intensity (ln)
23 | GAAATATTTTGTTGTGCATGCGACATTAAATAAAAA [TGCATGCA_site331] | 8.63 ± 0.45
24 | TTTTTATTTTTAGTAGTGCATTAATCATATGGTCAT [GTGCAC_site9879] | 8.72 ± 0.42
25 | TAAATAAATCCACATACACACACGACGCTAGTATAT [CACACA_site1060] | 9.34 ± 0.33
26 | AATATTTTATTTTTTCTCATTAAAAATTTTTTTTTT [CACACA_negctrl_site364] | 8.36 ± 0.54
27 | GATAGATAATATTTTAGTACATAAACAATTAAATAT [XGTACX_site4125] | 8.73 ± 0.48
28 | AAAATACATATATATATATATAATATTGTTGTTAAA [GTGCAC_negctrl_site519] | 8.79 ± 0.32
29 | CATATTTACATTAAGTGTACTTATGAATATATATAC [XGTACX_site7962] | 8.86 ± 0.46
30 | ATAATATTTTATAATTGTACTTTTTATAAATATAAA [XGTACX_site1940] | 8.29 ± 0.47
31 | ATATTTTTTTTCATTTGTACACATAAAATTATATAG [XGTACX_site8260] | 8.72 ± 0.49
32 | ATTATTCGTTTTAAATGTACTCATATAAACGATAAA [XGTACX_site7866] | 8.33 ± 0.4
33 | CAAAAGAAGGTAAACACACACACACCCATACAAAAA [CACACA_site3765] | 10.1 ± 0.43
34 | TTTTATAATTTCAAAGGATTCTTTAATATTATAAAT [CACACA_negctrl_site1812] | 8.12 ± 0.39
35 | AAAAAAAAAAAAAAAAGTACACACTTTTGCCTACAT [XGTACX_site6583] | 8.98 ± 0.49
36 | AATAATTGCTAAAGGTGTACAATACGTATATAAGAA [XGTACX_site4910] | 9.12 ± 0.46
37 | TACAGAAATTTATATATATATATATATATATATATA [XGTACX_negctrl_site209] | 9.8 ± 0.39
38 | AAATCAAAAACGTTTACACACATTCTTATTTAAATA [CACACA_site790] | 8.78 ± 0.38
39 | TGAGACATGAATGCAAGTACAAAAAGGAGAACAAAA [XGTACX_site6183] | 9.04 ± 0.59
40 | TACATATATTTTTTATGTACTTACTTGTGTGTTTAT [XGTACX_site5126] | 9.04 ± 0.49
41 | AAATGTTGAAATGATACACACATATATATATATATA [CACACA_site2517] | 9.95 ± 0.46
42 | TAAATTCTGTTTAAAAGTACAAATAATATTGTGCCT [XGTACX_site7805] | 8.47 ± 0.47
43 | TTTATTAAAACAAAATGTACACACATATAATTTAAT [XGTACX_site1637] | 8.73 ± 0.38
44 | TTAATCTTCATAAAATGTACAGAAGATTGAATATTC [XGTACX_site6213] | 8.47 ± 0.3

Row | Sequence | gcPBM binding intensity (ln)
45 | TGAAAGTGTATTAAAGTGCATATTATTTTATCTACC [GTGCAC_site9969] | 8.73 ± 0.42
46 | TTAATAACAAAATAAACACACATATATAAATACACA [CACACA_site6849] | 9.19 ± 0.4
47 | TTATATTTTTTTTGTAGTACATTATAGAATACACAC [XGTACX_site969] | 8.91 ± 0.25
48 | AATTCATTATATATACGTACATATTTCTGTATAAAA [XGTACX_site6371] | 8.62 ± 0.39
49 | ATTTATTTCACAAAAACATGCAGTTTGAAATTGCCA [TGCATGCA_site910] | 8.48 ± 0.45
50 | GATTATTTTATAAGTACACACATTTATATATAATAA [CACACA_site2573] | 8.65 ± 0.35
51 | GCATAAATTATCATAACATAAATATAAAAATATAAT [GTGCAC_negctrl_site55] | 8.85 ± 0.38
52 | AAAAAAAAAAGACACACACACACATAAATATAAATA [CACACA_site6215] | 10.2 ± 0.42
53 | TTATATAGGTCATTCATAAATACAGTTTTTAAAAAA [CACACA_negctrl_site1340] | 8.29 ± 0.42
54 | ATAATACAATTTATAACACACACACTATAATACATA [CACACA_site8338] | 9.56 ± 0.2
55 | AAATAATAAATTATAACACACATATATATATATATA [CACACA_site4045] | 9.615 ± 0.021
56 | TTCATGCTTATATGTGCACACACAAAAGAAAAGAAA [CACACA_site1656] | 9.44 ± 0.36
57 | GGAAAGACAGTTCACAGTACCCAGTAACTCTACGGA [XGTACX_site2009] | 9 ± 0.37
58 | TTTCACCATATAAACGTGCACACTACAAAAATATAT [CACACA_site2547] | 8.86 ± 0.38
59 | AAATAATGAAACAAAGTGCATAAAAATATACATATA [GTGCAC_site9467] | 8.92 ± 0.52
60 | ATGGATTATACGTGCACACATATATACCAATAAATA [CACACA_site4524] | 9.25 ± 0.42
61 | CATTAAAATATGAGATGTACACAATATCTATTATAT [XGTACX_site4979] | 8.79 ± 0.4
62 | ATTTAAATATCTTCTTTTTTTTTTTTTTTTGAAATT [CACACA_negctrl_site1074] | 8.15 ± 0.64
63 | GTGTATAATATAGGATGTACAATAAAACACCGATTG [XGTACX_site7429] | 9.07 ± 0.42
64 | GAGCGTAATCTATTTGCACACTTATTTGTTCTTAAA [CACACA_site673] | 9.09 ± 0.38
65 | TTGTTTATCAACAGCACACACAACAACAACAACAAC [CACACA_site458] | 9.11 ± 0.32
66 | ATAAAAACATAAACAAATCAAAAAAAAAAAAAAAAA [CACACA_negctrl_site13] | 8.59 ± 0.46

Row | Sequence | gcPBM binding intensity (ln)
67 | TGTGCACATAATTAGTGTACATTTTTTATTTAGACA [XGTACX_site317] | 8.59 ± 0.44
68 | AATGGCAAAATAGGCACACACACATATACATATATA [CACACA_site1058] | 9.72 ± 0.47
69 | AATTATATTTGAAATACACACATAAAAATCATATAG [CACACA_site3468] | 8.98 ± 0.3
70 | AGATTTAAATATCATACACACTTTATATATAATACA [CACACA_site4688] | 8.68 ± 0.45
71 | ATTAGAGAATCGTAACCCAAATGAACATACTTAAAT [GTGCAC_negctrl_site363] | 8.87 ± 0.39
72 | CTTATTGATTTAAAAAGTACATATATGTATATACAC [XGTACX_site4072] | 8.62 ± 0.48
73 | AAAAAAAAAAAAAATACACACATATAAATATAAATA [CACACA_site6189] | 9.04 ± 0.47
74 | AATATATAAACCGAACGTACATATTTTTTATACACC [XGTACX_site2121] | 8.89 ± 0.38
75 | TGTTATATGTTCAAATGTACAAATCATATACATGTT [XGTACX_site3192] | 8.76 ± 0.38
76 | GTGTACAGACACAAAATATATACATATATATATATA [CACACA_negctrl_site1796] | 9.5 ± 0.11
77 | TATTTTCATAATAAAAAAAAATAATTTAAAAAATAT [CACACA_negctrl_site748] | 8.12 ± 0.49
78 | ATTATTTTCTCATAGAGTACAAATGTTGTTGTTGTC [XGTACX_site1062] | 8.95 ± 0.45
79 | TTATTTTATTTTTATACACACATGTTTTAATGTTCA [CACACA_site249] | 9.06 ± 0.38
80 | AAAAGATATTTGAATATACACACGATTTAAATTTAA [CACACA_site3865] | 8.78 ± 0.39
81 | TATATATACACACACACATGCATGCCGATATATATA [TGCATGCA_site29] | 9.76 ± 0.11
82 | AATAAAAATAGGAAATGTACACATATATATATATAT [XGTACX_site1853] | 9.72 ± 0.18
83 | AAAGATTTAATCTATACATGCAAATATATAGAAAAG [TGCATGCA_site373] | 8.67 ± 0.35
84 | AGATGCCAAGTATAAAGTACATATCAAAATGTATAT [XGTACX_site456] | 8.96 ± 0.42
85 | GAACAAAATTTTATATGTACATAATATTTATATATA [XGTACX_site3667] | 8.64 ± 0.37
86 | AAAATTAATGTTGGTTGTACAAAAATTAAATATGGT [XGTACX_site66] | 9.11 ± 0.46
87 | AGGAGGATAGTTCACAGTACCCAGTAACTCTACGAG [XGTACX_site2008] | 8.8 ± 0.68
